The supplement of paper PMC4604168 (melanoma cell lines)
The other results are listed elsewhere or left out. Most values come without repeats; read them as rough.

These compounds were tested on SkMel2 (assay: cell count relative to DMSO control; melanoma cells; higher = more viable cells). Settings: library dose: low library concentration; 72 h.
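Further: cell number obtained by counting DAPI-stained nuclei in high-throughput microscope images with image analysis software, screen run in 1,536-well plates.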

Compound | cell count [%]
Nc1ncn([C@H]2C[C@H](O)[C@@H](CO)O2)c(=O)n1 [decitabine] + O=C(O)c1ccc(-c2c[nH]c3ncc(-c4ccccc4)cc23)cc1C1CCCC1 [GSK650394] (first compound 0.1 µM, partner dose 0.16 µM) | 93.3
CC(=O)O[C@@]12CO[C@@H]1C[C@H](O)[C@@]1(C)C(=O)[C@H](O)C3=C(C)[C@@H](OC(=O)[C@H](O)[C@@H](NC(=O)OC(C)(C)C)c4ccccc4)C[C@@](O)([C@@H](OC(=O)c4ccccc4)[C@H]21)C3(C)C [Docetaxel] + C=CCn1c(=O)c2cnc(Nc3ccc(N4CCN(C)CC4)cc3)nc2n1-c1cccc(C(C)(C)O)n1 [MK1775] (first compound 0.0001 µM, partner dose 0.02 µM) | 43.1
Nc1nc(F)nc2c1ncn2[C@@H]1O[C@H](CO)[C@@H](O)[C@@H]1O [fludarabine] + Cc1cc([N+](=O)[O-])ccc1NS(=O)(=O)c1cc(Cl)ccc1Cl [FH535] (first compound 0.2 µM, partner dose 1 µM) | 4.28
CC(=O)O[C@@]12CO[C@@H]1C[C@H](O)[C@@]1(C)C(=O)[C@H](O)C3=C(C)[C@@H](OC(=O)[C@H](O)[C@@H](NC(=O)OC(C)(C)C)c4ccccc4)C[C@@](O)([C@@H](OC(=O)c4ccccc4)[C@H]21)C3(C)C [Docetaxel] + O=S(=O)(c1ccccc1)N(CC(F)(F)F)c1ccc(C(O)(C(F)(F)F)C(F)(F)F)cc1 [T0901317] (first compound 0.0001 µM, partner dose 1.4 µM) | 40.2
CC(=O)c1c(C)c2cnc(Nc3ccc(N4CCNCC4)cn3)nc2n(C2CCCC2)c1=O [palbociclib] + CC(C)(C)c1cnc(CSc2cnc(NC(=O)C3CCNCC3)s2)o1 [SNS-032] (first compound 0.04 µM, partner dose 0.01 µM) | 81.7
CC(=O)O[C@@]12CO[C@@H]1C[C@H](O)[C@@]1(C)C(=O)[C@H](O)C3=C(C)[C@@H](OC(=O)[C@H](O)[C@@H](NC(=O)OC(C)(C)C)c4ccccc4)C[C@@](O)([C@@H](OC(=O)c4ccccc4)[C@H]21)C3(C)C [Docetaxel] + CO[C@@H]1[C@H](N(C)C(=O)c2ccccc2)C[C@H]2O[C@]1(C)n1c3ccccc3c3c4c(c5c6ccccc6n2c5c31)C(=O)NC4 [Midostaurin] (first compound 0.0001 µM, partner dose 0.08 µM) | 43
Nc1nc(F)nc2c1ncn2[C@@H]1O[C@H](CO)[C@@H](O)[C@@H]1O [fludarabine] + COc1ccc2c(c1)CCC1C2CCC2(C)C(NCCCCCCN3C(=O)C=CC3=O)CCC12 [U73122] (first compound 0.2 µM, partner dose 0.4 µM) | 4.51
CC(=O)c1c(C)c2cnc(Nc3ccc(N4CCNCC4)cn3)nc2n(C2CCCC2)c1=O [palbociclib] + Cn1c(Nc2ccc(C(F)(F)F)cc2)nc2cc(Oc3ccnc(-c4ncc(C(F)(F)F)[nH]4)c3)ccc21 [CHIR265] (first compound 0.04 µM, partner dose 0.08 µM) | 71.5
Nc1ccn([C@@H]2O[C@H](CO)[C@@H](O)C2(F)F)c(=O)n1 [gemcitabine] + O=c1cc(-c2cccc3c2Sc2ccccc2S3)oc(N2CCOCC2)c1 [KU55933] (first compound 0.0004 µM, partner dose 1 µM) | 100
CC(=O)c1c(C)c2cnc(Nc3ccc(N4CCNCC4)cn3)nc2n(C2CCCC2)c1=O [palbociclib] + CO[C@@H]1[C@H](N(C)C(=O)c2ccccc2)C[C@H]2O[C@]1(C)n1c3ccccc3c3c4c(c5c6ccccc6n2c5c31)C(=O)NC4 [Midostaurin] (first compound 0.04 µM, partner dose 0.08 µM) | 70.2
Nc1ncn([C@H]2C[C@H](O)[C@@H](CO)O2)c(=O)n1 [decitabine] + CO[C@@H]1[C@H](N(C)C(=O)c2ccccc2)C[C@H]2O[C@]1(C)n1c3ccccc3c3c4c(c5c6ccccc6n2c5c31)C(=O)NC4 [Midostaurin] (first compound 0.1 µM, partner dose 0.08 µM) | 80.9
CC(=O)c1c(C)c2cnc(Nc3ccc(N4CCNCC4)cn3)nc2n(C2CCCC2)c1=O [palbociclib] + O=C(O)C(=O)Nc1sc2c(c1C(=O)O)CCNC2 [TCS401] (first compound 0.04 µM, partner dose 1.66667 µM) | 76.9
